{"source": "PubChem BioAssay AID662", "about": "(National Center for Advancing Translational Sciences (NCATS), 2007)", "note": "Screen size: about 71,000 compounds; about 1,800 (2.5%) were called active. This list was built around the results that the source calls inconclusive (neither active nor inactive); the mix of calls is not that of the screen. Calls come from the whole dose curve; as a rule, active = well fitted activation curve with a large enough effect in the signal ratio, with a control signal flat (not every such curve was filed as active); inconclusive = small, poorly fitted or top-dose-only effect, or effect the other way, or a change in a side signal; inactive = flat fitted curve, though single readings scatter; the % refers to the signal ratio. A potency beside an inconclusive call is a rough fit, not a confirmed value. Potency is the fitted concentration of half-maximal effect; tags give direction and shape of the fitted curve.", "data": [{"test": "Cell signaling CRE-BLA (Fsk stim); for activity change, negative = inhibition: % of control where 0% means no effect", "details": "CHO CRE-bla reporter (cAMP response element driving beta-lactamase), forskolin EC10, beta-lactamase ratio; activity change, negative = inhibition: at 38.2 µM (top of the series) unless noted", "outline": "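Forskolin analogue NKH 477 at EC10 stimulated CRE-driven beta-lactamase in CHO cells alongside compound dilution series. Beta-lactamase was measured with CCF4, excitation 405 nm, emission ratio 460/530 nm.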", "values": [{"smiles": "COc1cccc(OC)c1/C(O)=C(\\C#N)c1nc2ccccc2[nH]1", "activity change, negative = inhibition": "inactive: -7.03%"}, {"smiles": "CN(C)c1nc2c(c(=O)[nH]c(=O)n2C)n1Cc1ccc(F)cc1", "Potency": "inconclusive: 12.6 µM [rising, single point]"}, {"smiles": "CCOc1ccc2nc(NC(=O)CN3CCC(n4nnc5cc(F)ccc54)CC3)sc2c1", "activity change, negative = inhibition": "inconclusive: -21.4%"}, {"smiles": "O=C(NCCCN1CCCCCC1)[C@@H](c1ccccc1)C1CCCCC1", "activity change, negative = inhibition": "inconclusive: -31.7%"}, {"smiles": "CCCC1C2CN(C(C)=O)CC=C2C(C#N)=C(N)C1(C#N)C#N", "note": "(stereo unspecified)", "activity change, negative = inhibition": "inactive: 1.93%"}, {"smiles": "COc1ccc2[nH]c3c(=O)n(CCCCC(=O)N4CCC(C(N)=O)CC4)c(=S)[nH]c3c2c1", "activity change, negative = inhibition": "inactive: -12.5%"}, {"smiles": "O=S(=O)(Nc1ccc(-c2nc3cccnc3s2)cc1)c1cccs1", "Potency": "active: 3.16 µM"}, {"smiles": "O=C(O)CCC(=O)NCCn1c(-c2ccccc2)csc1=Nc1ccccc1", "activity change, negative = inhibition": "inconclusive: 10.6%"}, {"smiles": "Cc1ccc2cc(C#N)c(NCCNC(=O)C3CC3)nc2c1C", "Potency": "inconclusive: 6.31 µM [rising, partial curve]"}, {"smiles": "O=c1[nH]c(Cc2cccs2)nc2ccccc12", "activity change, negative = inhibition": "inconclusive: 8.28%"}, {"smiles": "O=C(CCn1c(=O)[nH]c2ccsc2c1=O)N1CCc2ccccc2C1", "activity change, negative = inhibition": "inconclusive: -18.8%"}, {"smiles": "CC1CCN(C(=O)C2CCN(C(=O)c3cc4sccc4n3Cc3ccc(F)cc3)CC2)CC1", "activity change, negative = inhibition": "inconclusive: -5.51%"}, {"smiles": "COCCn1c(=O)c(-c2cn(C)c3ccccc23)nc2cnc(Oc3cccc(Cl)c3)nc21", "Potency": "active: 1.26 µM"}, {"smiles": "CS(=O)(=O)c1ccc(Cl)c(NC(=O)C2CC(=O)N(Cc3ccccc3)C2)c1", "note": "(stereo unspecified)", "activity change, negative = inhibition": "inconclusive: 17%"}, {"smiles": "CCOC(=O)c1ccc(NC(=O)c2ccc(C)c(S(=O)(=O)N3CCOCC3)c2)cc1", "Potency": "inconclusive: 0.00316 µM [rising, full curve, poor fit]"}, {"smiles": "CC1CC(C)CN(CCCNC(=O)c2ccc3c(c2)NC(=O)C(N2CCCCC2)S3)C1", "note": "(stereo unspecified)", "activity change, negative = inhibition": "inconclusive: -5.52%"}, {"smiles": "O=C(c1cccn2c(=O)c3ccc(Cl)cc3nc12)N1CCN(Cc2ccc3c(c2)OCO3)CC1", "Potency": "inconclusive: 12.6 µM [rising, partial curve]"}, {"smiles": "COCCn1c(=O)c(-c2ccccc2)nc2cnc(OCc3ccccc3)nc21", "activity change, negative = inhibition": "inactive: -0.947%"}, {"smiles": "CC(C)N(Cc1nc(-c2ccccc2)no1)C(=O)c1ccc(Cl)cc1", "activity change, negative = inhibition": "inconclusive: -21.8%"}, {"smiles": "COc1ccc(S(=O)(=O)N2CCc3ccccc32)cc1C(=O)OCc1nnc(-c2ccccc2)o1", "activity change, negative = inhibition": "inconclusive: 7.85%"}, {"smiles": "CC(C)CCn1c(=S)[nH]c2ncccc2c1=O", "activity change, negative = inhibition": "inconclusive: 6.89%"}, {"smiles": "CC(=O)C(C)Oc1ccc2c3c(c(=O)oc2c1)CCCC3", "note": "(stereo unspecified)", "Potency": "inconclusive: 10 µM [rising, partial curve]"}, {"smiles": "CCCn1c(-c2ccc(F)cc2)nc2c(NCC3CCCN3CC)nc(C)nc21", "note": "(stereo unspecified)", "activity change, negative = inhibition": "inconclusive: 20.9%"}, {"smiles": "CCc1c(C)c2ccc(OCC(=O)OC(C)C)c(C)c2oc1=O", "activity change, negative = inhibition": "inactive: 23%"}, {"smiles": "COc1ccccc1CN1CC(C(=O)NCC2CCCO2)CC1=O", "note": "(stereo unspecified)", "activity change, negative = inhibition": "inconclusive: -8.84%"}, {"smiles": "CCOC(=O)c1ccc(NC(=O)c2nn(CC)cc2Br)cc1", "activity change, negative = inhibition": "inactive: 4.09%"}, {"smiles": "CCOC(=O)c1sc(NC(=O)c2ccc(Cl)s2)cc1C", "Potency": "inconclusive: 10 µM [rising, partial curve]"}, {"smiles": "CCCC(=O)Nc1cccn(Cc2ccccc2Br)c1=O", "Potency": "inconclusive: 3.16 µM [falling, partial curve]"}, {"smiles": "COCCn1c(=O)c(-c2cn(C)c3ccccc23)nc2cnc(Oc3ccc(OC)cc3)nc21", "Potency": "inconclusive: 10 µM [rising, partial curve]"}, {"smiles": "C[C@@H]1CCC[C@H](C)N1NC(=O)c1ccc(Cl)c(S(N)(=O)=O)c1", "activity change, negative = inhibition": "inactive: 2.02% [at 17.1 µM]"}, {"smiles": "CC1=C(C(=O)OC(C)C)C(c2ccc(N(C)C)cc2)C2=C(CC(C)(C)CC2=O)N1", "note": "(stereo unspecified)", "activity change, negative = inhibition": "inactive: 3.29%"}, {"smiles": "O=c1c2cc(N3CCOCC3)ccc2[nH]c(=S)n1CCCN1CCCCCC1", "activity change, negative = inhibition": "inactive: -11.1%"}, {"smiles": "Cn1nc(-c2ccc(Cl)cc2)c2cc(C(=O)N3CCOCC3)sc21", "Potency": "active: 6.31 µM"}, {"smiles": "CC[C@H]1OC(=O)[C@H](C)[C@@H](O[C@H]2C[C@@](C)(OC)[C@@H](O)[C@H](C)O2)[C@H](C)[C@@H](O[C@@H]2O[C@H](C)C[C@H](N(C)C)[C@H]2O)[C@](C)(O)C[C@@H](C)CN(C)[C@H](C)[C@@H](O)[C@]1(C)O", "activity change, negative = inhibition": "inconclusive: -8.23%"}, {"smiles": "O=C1C2=C(Nc3cc([N+](=O)[O-])ccc3N2)O[C@@H]1c1c[nH]c2ccc(COc3ccccc3)cc12", "activity change, negative = inhibition": "inactive: -1.05% [at 7.6 µM]"}, {"smiles": "NC(=O)C1(N2CCCCC2)CCN(C(=O)c2ccccc2)CC1", "Potency": "inconclusive: 10 µM [rising, partial curve]"}, {"smiles": "COc1ccc(-c2noc(CCC(=O)N3CCN(c4cccc(C(F)(F)F)c4)CC3)n2)cc1", "Potency": "inconclusive: 1.26 µM [rising, partial curve]"}, {"smiles": "CCOC(=O)C1=C(C)NC(=S)NC1c1cccc(O)c1", "note": "(stereo unspecified)", "activity change, negative = inhibition": "inconclusive: -14.1%"}, {"smiles": "CCC(C)(C)N=C(NC#N)Nc1cccnc1", "Potency": "inconclusive: 31.6 µM [falling, single point]"}, {"smiles": "CC(=O)N1c2c(cc(Br)cc2S(=O)(=O)NCC2COc3ccccc3O2)CC1C", "note": "(stereo unspecified)", "activity change, negative = inhibition": "inactive: -10.2%"}, {"smiles": "CCNC(=O)C1CC(=O)N(CC)C(=Nc2cc(Cl)c(O)c(Cl)c2)S1", "note": "(stereo unspecified)", "activity change, negative = inhibition": "inconclusive: -9.02%"}, {"smiles": "CCCN(CCC)C(=O)CCS(=O)(=O)c1cccc2nsnc12", "activity change, negative = inhibition": "inactive: -4.66%"}, {"smiles": "COc1cccc(C2/C(=C(/O)c3ccc(F)cc3)C(=O)C(=O)N2CCN(C)C)c1", "note": "(stereo unspecified)", "activity change, negative = inhibition": "inconclusive: 1.35% [at 7.6 µM]"}, {"smiles": "CCC(Sc1nc(N)cc(=O)[nH]1)C(=O)NC(C(=O)OC)c1ccccc1", "note": "(stereo unspecified)", "activity change, negative = inhibition": "inactive: -7.78%"}, {"smiles": "CC1(C)c2ccccc2N2CC(=O)N(CC(N)=O)C21C", "note": "(stereo unspecified)", "activity change, negative = inhibition": "inconclusive: 7.58%"}, {"smiles": "c1ccc(OCc2nn3c(-c4n[nH]c5c4CCC5)nnc3s2)cc1", "Potency": "inconclusive: 12.6 µM [rising, single point]"}, {"smiles": "Cc1cc(N(C)Cc2ccccc2)nc(-c2ccccc2)n1", "activity change, negative = inhibition": "inconclusive: 2.44% [at 7.6 µM]"}, {"smiles": "Cc1ccccc1NC(=O)c1c(O)c2cccc3c2n(c1=O)CC3", "activity change, negative = inhibition": "inactive: -6.67%"}, {"smiles": "CCn1c(=S)sc2c(=O)n(-c3ccccc3)c(SCC(=O)NCc3ccco3)nc21", "activity change, negative = inhibition": "inconclusive: 9.09%"}, {"smiles": "O=C(CSCC(=O)N1CCCCC1)OCC(=O)c1c[nH]c2ccccc12", "Potency": "inconclusive: 3.16 µM [falling, single point]"}, {"smiles": "O=C(c1ccco1)N1CCN(C(=O)c2cc(-c3ccccn3)nc3ccccc23)CC1", "Potency": "inconclusive: 5.01 µM [falling, single point]"}, {"smiles": "CCOC(=O)c1sc(NC(=O)C2CCCO2)c(C(=O)OCC)c1C", "note": "(stereo unspecified)", "activity change, negative = inhibition": "inconclusive: 21.3%"}, {"smiles": "CCCCNC(=O)C(c1ccc(OCC(=O)OC)c(C(=O)OC)c1)N(Cc1ccccc1)C(=O)CCCCCN1C(=O)NC(c2ccc(-c3ccccc3)cc2)C(C(=O)OCc2ccccc2)=C1C", "note": "(stereo unspecified)", "activity change, negative = inhibition": "inactive: 1.12%"}, {"smiles": "CCOC(=O)C1=C(NC(=O)c2ccc(Br)o2)Nc2ccccc2N=C1", "activity change, negative = inhibition": "inactive: -2.12%"}, {"smiles": "CCn1cc(C(=O)NCc2ccc(C)o2)c2cc(OC)c(OC)cc2c1=O", "Potency": "active: 2.51 µM"}, {"smiles": "COC(=O)[C@H](C)NC(=O)Nc1ccc(OC)cc1OC", "activity change, negative = inhibition": "inactive: -2.93%"}, {"smiles": "Cc1ccccc1-c1nccc(-n2ccnc2)n1", "Potency": "inconclusive: 15.8 µM [rising, single point]"}, {"smiles": "CCC(C(=O)O)n1c(C(F)(F)F)nc2ccccc21", "note": "(stereo unspecified)", "activity change, negative = inhibition": "inconclusive: -0.404%"}, {"smiles": "COCc1[nH]nc2c1C(C1C=CCCC1)C(C#N)=C(N)O2", "note": "(stereo unspecified)", "activity change, negative = inhibition": "inconclusive: 6.36%"}, {"smiles": "CC(C)Cn1c2nc3ccccc3nc2c2c(=O)n(CCN3CCOCC3)cnc21", "Potency": "inconclusive: 10 µM [rising, partial curve]"}, {"smiles": "COc1cc2c(cc1OC)-c1cc(NC3CC3)nc(=O)n1CC2", "Potency": "active: 10 µM"}, {"smiles": "Cc1ccc2[nH]c3c(=O)n(CCCN4CCN(C)CC4)cnc3c2c1", "activity change, negative = inhibition": "inactive: -1.29%"}, {"smiles": "CCN1CCN(c2ncnc3c2sc2nc(N4CCOCC4)c4c(c23)CCC4)CC1", "activity change, negative = inhibition": "inactive: 5.66%"}, {"smiles": "Cc1[nH]nc2c1C(c1cn[nH]c1-c1ccc(F)cc1)C(C#N)=C(N)O2", "note": "(stereo unspecified)", "activity change, negative = inhibition": "inconclusive: -19.4%"}, {"smiles": "CN(C)S(=O)(=O)c1ccc(N2CCCC2)c(C(=O)Nc2ccccc2N2CCOCC2)c1", "activity change, negative = inhibition": "inconclusive: 27.2%"}, {"smiles": "CC(=O)NC1(c2ccccc2)CCN(c2nc(C)cc(C)n2)CC1", "activity change, negative = inhibition": "inactive: 6.06%"}, {"smiles": "Cn1c(=O)c2c(nc(CN3CCC(C(N)=O)CC3)n2Cc2ccccc2Cl)n(C)c1=O", "activity change, negative = inhibition": "inactive: 7.11%"}, {"smiles": "CN(C)CN1C(=O)S/C(=C2/C(=O)N(CN(C)C)c3ccccc32)C1=O", "activity change, negative = inhibition": "inactive: -7.58% [at 7.6 µM]"}, {"smiles": "Cc1cc(C(=O)COc2cccc(-n3cnnn3)c2)c(C)n1-c1ccccc1", "activity change, negative = inhibition": "inactive: 12.8%"}, {"smiles": "O=C(O)c1cccnc1SCC(=O)N1CCCCCC1", "activity change, negative = inhibition": "inactive: -4.16%"}, {"smiles": "CCOC(=O)C(C)Sc1nc2c(c(=O)[nH]c(=O)n2C)n1C/C=C(/C)Cl", "note": "(stereo unspecified)", "Potency": "inconclusive: 10 µM [rising, single point]"}, {"smiles": "Cn1c(N)c(C(=O)COC(=O)Cc2ccsc2)c(=O)n(C)c1=O", "activity change, negative = inhibition": "inconclusive: 11.2%"}, {"smiles": "COc1cccc2sc(Nc3nc(C)c(C(C)=O)s3)nc12", "activity change, negative = inhibition": "inconclusive: 24.8%"}, {"smiles": "COCCCNc1oc(COc2ccc(Cl)cc2Cl)nc1C#N", "activity change, negative = inhibition": "inconclusive: 16.6%"}, {"smiles": "COc1ccc2c(c1)c(CC(=O)O)c(C)n2Cc1ccc(F)cc1", "activity change, negative = inhibition": "inactive: -7.21%"}, {"smiles": "Cc1cc(C(=O)OCC(=O)Nc2ccc(F)cc2)c(C)o1", "activity change, negative = inhibition": "inactive: -5.89%"}, {"smiles": "Cc1ccc(S(=O)(=O)N(C)CC(=O)Nc2cccc(C)n2)cc1", "activity change, negative = inhibition": "inactive: -5.37%"}, {"smiles": "Cc1ccc(NC(=O)c2ccccc2F)nc1", "activity change, negative = inhibition": "inactive: 5.4%"}, {"smiles": "CCOC(=O)c1ccc(OCC(=O)c2ccc(O)cc2O)cc1", "activity change, negative = inhibition": "inconclusive: -5.44%"}, {"smiles": "CCN(CC)CCNC(=O)Cn1c(-c2ccccn2)nc2ccccc21", "activity change, negative = inhibition": "inactive: -7.4%"}, {"smiles": "CC(C)COc1ccc(C(=O)N(Cc2ccco2)C2CCS(=O)(=O)C2)cc1", "note": "(stereo unspecified)", "activity change, negative = inhibition": "inactive: -4.55%"}]}]}
